In patent publication US10946019B2, “Nurr1:RXR activating compounds for simultaneous treatment of symptoms and pathology of Parkinson's disease” (priority 2015, dated 2021):

Tests used:
[1] = tested on: C57/BL6 PD mice treated with MPTP; test: Accelerating rotarod, post-degeneration MPTP mouse model, single dose; type: in vivo
[2] = tested on: C57/BL6 PD mice treated with 6-OHDA; test: Rotarod and contralateral turns, post-degeneration 6-OHDA mouse model; type: in vivo
[3] = tested on: C57/BL6 PD mice treated with 6-OHDA; test: Abnormal involuntary movements (AIMs) on chronic daily treatment of 6-OHDA mice; type: in vivo, mouse; conditions: for dyskinesias with abnormal involuntary movements (AIMs): daily IP for 14 days (compound 3 20 mg/kg)
[4] = tested on: C57BL/6 mice injected unilaterally with 6-OHDA; test: Neuroprotection in the unilateral 6-OHDA mouse model; conditions: unbiased stereology, vs vehicle

| SMILES | movement coordination (rotarod) ([1]; single IP 20 mg/kg, 7 days after MPTP) | motor coordination (rotarod) ([1]; single dose 10 mg/kg, 8 days post-acute MPTP, 4 hours post-dosing) | motor coordination on chronic daily treatment ([2]; 6-OHDA mice, daily 10 mg/kg for at least two weeks) | spontaneous contralateral turns ([2]; 6-OHDA model, 10 mg/kg, 4 hours post-dosing) | time post-dosing at which symptomatic improvement disappeared ([2]; MPTP and 6-OHDA post-degeneration models, single dose 10 mg/kg) [h] | movement coordination (rotarod) ([2]; single IP 20 mg/kg, 6-OHDA treated mice) | motor coordination (rotarod) ([2]; single dose 10 mg/kg, 5-6 weeks post-unilateral 6-OHDA, 4 hours post-dosing) | dyskinesias with abnormal involuntary movements (AIMs) ([3]; 6-OHDA mice) | increase in number of surviving TH(+) neurons in the SN [4] [%] | time to dyskinesias/AIMs ([3]; 6-OHDA mice, daily treatment) [days] | dyskinesias/AIMs ([3]; daily from 21 days post-unilateral 6-OHDA, compound 3 10 mg/kg for at least two weeks) |
| --- | --- | --- | --- | --- | --- | --- | --- | --- | --- | --- | --- |
| C=CCc1c(N(C)c2ccc(C(=O)O)cc2)nc(-c2ccccc2)nc1C(F)(F)F [Example 3, 4-((5-allyl-2-phenyl-6-(trifluoromethyl)pyrimidin-4-yl)(methyl)amino)benzoic acid] | increased movement coordination | significantly improved temporarily motor coordination | consistently improved motor coordination | induced contralateral turns | 8 | increased movement coordination | significantly improved temporarily motor coordination | did not induce dyskinesias | 47 |  |  |
| N[C@@H](Cc1ccc(O)c(O)c1)C(=O)O [L-DOPA, L-3,4-dihydroxyphenylalanine] |  |  |  |  |  |  |  | induced dyskinesias |  | ≤ 7 | severe hyperkinetic dyskinesias/AIMs |
